{"source": "PubChem BioAssay AID1466", "about": "(National Center for Advancing Translational Sciences (NCATS), 2008)", "note": "Out of some 200,000 compounds screened, about 10 (0.005%) were called active. The shares of active, inactive and inconclusive entries below differ from those in the screen. Calls follow the shape of the dose curve; as a rule, active = well fitted inhibition curve with a large enough effect; inconclusive = small, poorly fitted or top-dose-only effect, or effect the other way, or another doubt; inactive = no such curve, though single readings can be large or run the other way. Where the call is inconclusive, the potency comes from a doubtful curve fit. Potency is read from the fitted curve at half-maximal effect; tags tell the direction and shape of the fitted curve."}
{"target": "Lysosomal alpha-glucosidase (Homo sapiens) (UniProt P10253)", "assay": "qHTS Assay for Inhibitors of Human alpha-Glucosidase as a Potential Chaperone Treatment of Pompe Disease;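 as to activity change, negative = inhibition: plate controls were uninhibited enzyme wells for no effect and no-enzyme background for full effect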", "details": "purified human GAA, 4-MU-alpha-glucoside fluorescence; activity change, negative = inhibition: at 76.9 µM (top of the series) unless noted", "description": "NIH Chemical Genomics Center [NCGC] NIH Molecular Libraries Probe Production centers Network [MLPCN] MLPCN Grant: 1R03MH084841-01 Assay Submitter (PI): Wei Zheng NCGC Assay Overview: Alpha-glucosidase is responsible for hydrolysis of terminal, non-reducing 1,4-linked alpha-D-glucose residues with release of alpha-D-glucose. It is a lysosomal hydrolase that is required for the degradation of a small percentage (1-3%) of cellular glycogen in human. Deficiency of this enzyme results in glycogen-storage disease type II (GSDII), also referred to as Pompe disease, an autosomal recessive disorder. Structurally normal glycogen is accumulated in lysosomes and cytoplasm in affected patients, primarily in muscle tissues. Excessive glycogen storage within lysosomes may interrupt normal functioning of other organelles and leads to cellular injury. In turn, this leads to enlargement and dysfunction of the entire organ involved (eg, cardiomyopathy and muscle weakness). It has reported that the improper folding and trafficking of alpha-glucosidase resulting from the genetic mutations may account for a significant number of Pompe patients. […] We optimized this alpha-glucosidase assay in 1536-well plate format for identifying the novel small molecule inhibitors with the structures other than the sugar analogs in order to develop the new pharmacological chaperones.\nNCGC Assay Protocol Summary: This is a fluorogenic enzyme assay with 4-methylumbelliferyl-alpha-D-[…] as the substrate and human alpha-glucosidase as the enzyme preparation. Upon the hydrolysis of this fluorogenic substrate, the resulting product, 1. 4-methyllumbelliferone, can be excited at 365 nm and emits at 440 nm which can be detected by a standard fluorescence plate reader. Data were normalized to the controls for basal activity (without enzyme) and 100% activity (with enzyme). In the AC50 values were determined from concentration-response data modeled with the standard Hill equation. Assay buffer: 50 mM citric acid (titrated with potassium phosphate to pH 5.0), 0.005% Tween-20, pH 5.0. (pH 5.0 is an optimal condition for this enzyme assay) 1536-well assay protocol for the human alpha-glucosidase: (1) Add 2 ul/well of enzyme (4 nM final) (2) Add 23 nL compounds in DMSO solution. The final titration was 0.7 nM to 77 uM. (3) Add 1 ul of substrate (400 uM final) (4) Incubate at room temperature for 20 min. (5) Add 2 ul stop solution (1M NaOH and 1M Glycine mixture, pH 10) (6) Detect the assay plate in a ViewLux plate reader (PerkinElmer) with Ex=365 nm and Em=440nm. Keywords: Alpha-glucosidase, Pompe Disease, pharmacological chaperone, chaperone therapy, high throughput screening, alpha-glucosidase inhibitor, MLSMR, MLSCN, NIH Roadmap, qHTS and NCGC"}
{"smiles": "CC(=O)Nc1ccc(C2=NN(c3ccccc3)C(c3cccs3)C2)cc1", "note": "(centres undefined)", "Potency": "inconclusive: 28.2 µM [activator, partial curve]"}
{"smiles": "CC1(C)CN(c2ccccc2)N(C(=O)c2ccc(F)cc2)C1=O", "activity change, negative = inhibition": "inactive: -0.82%"}
{"smiles": "Cn1cccc1/C=C1\\SC(=O)N(CC(=O)Nc2ccc(F)cc2)C1=O", "Potency": "inconclusive: 10 µM [inhibitor, partial curve]"}
{"smiles": "COc1cc(/C=N/Nc2ccc(Cl)c(C(=O)O)c2)ccc1OC(=O)c1ccco1", "Potency": "inconclusive: 31.6 µM [inhibitor, single point]"}
{"smiles": "Cc1[nH]n(-c2ccccc2)c(=O)c1Sc1ccc(Cl)cc1", "activity change, negative = inhibition": "inconclusive: -18.3% [inhibitor]"}
{"smiles": "OCC1(CC2CCCCO2)CCN(C/C=C/c2ccccc2)CC1", "note": "(centres undefined)", "activity change, negative = inhibition": "inconclusive: 15.6% [activator]"}
{"smiles": "CC(C)c1nnc(NC(=O)c2cccs2)s1", "activity change, negative = inhibition": "inconclusive: 16.5% [activator]"}
{"smiles": "CCOc1ccc2nc(NCCNC(=O)C(C)(C)C)c(C)cc2c1", "activity change, negative = inhibition": "inconclusive: 23.5% [activator]"}
{"smiles": "COC(=O)c1sccc1NC(=O)Cn1nnc(-c2ccc(C)cc2)n1", "Potency": "inconclusive: 28.2 µM [inhibitor, partial curve]"}
{"smiles": "CCOC(=O)c1c(NC(=O)c2ccc(S(=O)(=O)N3CCOCC3)cc2)sc2c1CCN(C)C2", "Potency": "inconclusive: 12.6 µM [activator, single point]"}
{"smiles": "O=S(=O)(c1ccc(-c2ccccc2)cc1)N1CCOCC1", "Potency": "inconclusive: 35.5 µM [inhibitor, single point]"}
{"smiles": "S=c1sc2c(Cl)ncnc2n1-c1ccccc1", "Potency": "inconclusive: 56.2 µM [inhibitor, single point]"}
{"smiles": "O=C(N/N=C1\\SCC(=O)N1CCc1ccccc1)c1cccs1", "activity change, negative = inhibition": "inconclusive: 15.2% [activator]"}
{"smiles": "Cc1ccc(NC(=O)CS(=O)CC(=O)NC2CCN(Cc3ccccc3)CC2)c(C)c1", "note": "(centres undefined)", "Potency": "inconclusive: 0.708 µM [inhibitor, full curve, poor fit]"}
{"smiles": "CC(C)c1ccc(-c2noc(C3CCCN(S(C)(=O)=O)C3)n2)cc1", "note": "(centres undefined)", "Potency": "inconclusive: 0.158 µM [inhibitor, full curve, poor fit]"}
{"smiles": "O=C(CN(Cc1ccco1)C(=O)CCC(=O)Nc1ccccn1)NCCc1ccccc1", "Potency": "inconclusive: 3.16 µM [inhibitor, single point]"}
{"smiles": "O=C(Cn1c(=O)sc2ccccc21)Nc1ccc(S(=O)(=O)N2CCCC2)cc1", "Potency": "inconclusive: 22.4 µM [inhibitor, single point]"}
{"smiles": "O=C1CCCC(O)=C1C=Nc1ccc2c(c1)oc1ccccc12", "activity change, negative = inhibition": "inconclusive: -20.8% [inhibitor]"}
{"smiles": "CCP(=O)(c1ccccc1)C(C)(C)O", "note": "(centres undefined)", "Potency": "inconclusive: 3.55 µM [inhibitor, partial curve, poor fit]"}
{"smiles": "CC(C)N1CCN(Cc2cccc(-c3ccco3)c2)CC1CCO", "note": "(centres undefined)", "activity change, negative = inhibition": "inconclusive: 19.9% [activator]"}
{"smiles": "CCN(CC)CCNc1ccc(CO)c2sc3ccccc3c(=O)c12", "activity change, negative = inhibition": "inconclusive: -0.541% [inhibitor] [at 15.4 µM]"}
{"smiles": "COc1cc(/C=N/NC(=O)c2ccccc2)ccc1OS(=O)(=O)c1ccccc1", "Potency": "inconclusive: 35.5 µM [inhibitor, partial curve, poor fit]"}
{"smiles": "CC1(C)CC(=O)C2=C(C1)N(CCN1CCOCC1)C1=C(C(=O)CC(C)(C)C1)C2c1cccc(Cl)c1", "Potency": "inconclusive: 39.8 µM [activator, partial curve]"}
{"smiles": "Cc1ccc(S(=O)(=O)N(C)CC(O)Cn2c3ccccc3c3ccccc32)cc1", "note": "(centres undefined)", "Potency": "inconclusive: 3.98 µM [inhibitor, full curve]"}
{"smiles": "FC(F)(F)c1cc(-c2cccs2)nc2nc(N3CCOCC3)sc12", "Potency": "inconclusive: 35.5 µM [activator, single point]"}
{"smiles": "Cn1cnnc1SCC(=O)Nc1ccc2nc(SCc3ccccc3)sc2c1", "Potency": "inconclusive: 28.2 µM [inhibitor, single point]"}
{"smiles": "COCCNC(=O)C(OC(=O)C1=Cc2ccccc2OC1)C(C)C", "note": "(centres undefined)", "activity change, negative = inhibition": "inconclusive: 10.7% [activator]"}
{"smiles": "CC(=O)Nc1ccc(OS(=O)(=O)c2ccccc2C)cc1", "activity change, negative = inhibition": "inconclusive: 8.11% [activator]"}
{"smiles": "O=C(N/N=C/c1ccc(O)c(O)c1O)/C(=C/c1ccc([N+](=O)[O-])cc1)NC(=O)c1ccccc1", "Potency": "inconclusive: 22.4 µM [inhibitor, single point]"}
{"smiles": "COc1ccc(OC)c(C2CC(=O)N3CN(c4cccc(Cl)c4C)CSC3=C2C#N)c1", "note": "(centres undefined)", "Potency": "inconclusive: 31.6 µM [inhibitor, partial curve]"}
{"smiles": "Cc1cc(=O)oc2cc(OCC(=O)Nc3ccc(S(=O)(=O)N(C)C)cc3)ccc12", "Potency": "inconclusive: 28.2 µM [activator, partial curve]"}
{"smiles": "CC(C)(C)S(=O)(=O)/C(C#N)=N/Nc1ccc(S(C)(=O)=O)cc1", "activity change, negative = inhibition": "inconclusive: -19% [inhibitor]"}
{"smiles": "CCOCCCNC(=O)C1CCN(S(=O)(=O)c2ccc(C)cc2)CC1", "activity change, negative = inhibition": "inconclusive: -17.8% [inhibitor]"}
{"smiles": "CCOC(=O)N1CCN(S(=O)(=O)c2ccc(C(=O)NNc3nc4cc(C)cc(C)c4s3)cc2)CC1", "Potency": "inconclusive: 7.08 µM [inhibitor, partial curve]"}
{"smiles": "CC(C)(C)c1ccc(/C=N/NC(=O)Cc2c[nH]c3ccccc23)cc1", "Potency": "inconclusive: 20 µM [inhibitor, partial curve, poor fit]"}
{"smiles": "N#Cc1c(N)sc(=S)c2c1CCCCC2", "activity change, negative = inhibition": "inactive: 8.39%"}
{"smiles": "Cc1nn2c(NCC(C)C)c3c(nc2c1-c1ccccc1)CCC3", "Potency": "inconclusive: 25.1 µM [activator, single point]"}
{"smiles": "COC(=O)c1c(NC(=O)c2ccco2)sc2c1CCC2", "activity change, negative = inhibition": "inconclusive: 14.9% [activator]"}
{"smiles": "Cc1cc(=O)oc2c(CN3CCCCC3)c(O)c(Cl)cc12", "Potency": "inconclusive: 31.6 µM [activator, partial curve]"}
{"smiles": "Cc1c(Cc2ccc3c(c2)OCO3)sc(NC(=O)c2ccc3ccccc3c2)c1C(N)=O", "Potency": "inconclusive: 50.1 µM [activator, partial curve, poor fit]"}
{"smiles": "COc1ccc(N2CCN(C(=O)C3COc4ccccc4O3)CC2)cc1", "note": "(centres undefined)", "Potency": "inconclusive: 56.2 µM [inhibitor, single point]"}
{"smiles": "O=S(=O)(Nc1ccc(S(=O)(=O)N2CCCCC2)cc1)c1cccs1", "Potency": "inconclusive: 0.794 µM [inhibitor, full curve, poor fit]"}
{"smiles": "O=C(O)CCc1ccc(S(=O)(=O)N2CCOCC2)cc1", "Potency": "inconclusive: 35.5 µM [inhibitor, partial curve]"}
{"smiles": "Cc1ccc2nc(NC(=O)C3CCN(S(=O)(=O)c4cccc5nsnc45)CC3)sc2c1", "Potency": "inconclusive: 56.2 µM [inhibitor, single point]"}
{"smiles": "CC1(C)CC(=O)c2c(O)cc(OCc3ccc(Br)cc3)cc2O1", "Potency": "inconclusive: 22.4 µM [activator, single point]"}
{"smiles": "CCOc1ccc(C(=O)CN2CCN(S(=O)(=O)c3ccc(Cl)cc3)CC2)cc1", "Potency": "inconclusive: 12.6 µM [activator, single point]"}
{"smiles": "Cc1ccc(NC(=S)NCCc2c[nH]c3ccccc23)cc1", "Potency": "inconclusive: 50.1 µM [inhibitor, single point]"}
{"smiles": "Cc1cccn2c(=O)c3cc(C(=O)NCc4cccnc4)c(=N)n(C(C)C)c3nc12", "Potency": "inconclusive: 28.2 µM [activator, partial curve]"}
{"smiles": "COC(=O)c1sccc1-c1ccc(C(=O)Nc2cccc(Cl)c2)o1", "Potency": "inconclusive: 50.1 µM [activator, single point]"}
{"smiles": "N#Cc1c(-c2cccs2)cc(-c2cccnc2)nc1N", "Potency": "inconclusive: 28.2 µM [activator, partial curve]"}
{"smiles": "Cc1ccccc1NC(=O)N1CCN(S(=O)(=O)c2ccccc2)CC1", "activity change, negative = inhibition": "inconclusive: -16.7% [inhibitor]"}
{"smiles": "CC(=O)N1CCc2cc(S(=O)(=O)Nc3cccc(C(F)(F)F)c3)ccc21", "Potency": "inconclusive: 50.1 µM [inhibitor, single point]"}
{"smiles": "COC(=O)c1cn(NC(=O)c2ccc(F)cc2)c(=O)c2ccccc12", "Potency": "inconclusive: 50.1 µM [inhibitor, single point]"}
{"smiles": "COCCNC(=O)Cn1nc(-c2ccccc2OC)ccc1=O", "activity change, negative = inhibition": "inconclusive: -22.2% [inhibitor]"}
{"smiles": "O=[N+]([O-])c1ccc(O)c(C=Nc2ccc3nc(-c4ccccc4)[nH]c3c2)c1", "Potency": "inconclusive: 6.31 µM [inhibitor, single point]"}
{"smiles": "COc1ccc(N=Cc2sc3ccccc3c2Cl)cc1", "Potency": "inconclusive: 56.2 µM [inhibitor, single point]"}
{"smiles": "COCCCNC(=S)N/N=C/c1ccc(O)cc1", "activity change, negative = inhibition": "inactive: -0.583%"}
{"smiles": "Cc1nc(N2CCC(C)CC2)c2c(C)c(C(=O)Nc3cc(F)ccc3C)sc2n1", "Potency": "inconclusive: 39.8 µM [activator, single point]"}
{"smiles": "CCOC(=O)C1CCN(CCC(=O)Nc2cccc(C)c2)CC1", "activity change, negative = inhibition": "inconclusive: 14.2% [activator]"}
{"smiles": "COC(=O)c1ccc(CSc2nc(C)nc3c2c(=O)n(C)c(=O)n3C)o1", "Potency": "inconclusive: 5.62 µM [inhibitor, partial curve]"}
{"smiles": "CCCCCCSc1nnc(-c2cnn(-c3ccccc3)c2-n2cccc2)n1C", "Potency": "inconclusive: 31.6 µM [inhibitor, single point]"}
{"smiles": "O=S(=O)(c1ccc(S(=O)(=O)n2cnc3ccccc32)cc1)N1CCCCCC1", "Potency": "inconclusive: 1.12 µM [inhibitor, full curve, poor fit]"}
{"smiles": "COc1cccc(C(=O)Nc2cc(C)on2)c1OC", "Potency": "inconclusive: 50.1 µM [inhibitor, single point]"}
{"smiles": "O=C(O/N=C/C1=C(Cl)c2ccccc2CC1)c1ccc(F)cc1", "Potency": "inconclusive: 5.01 µM [inhibitor, partial curve]"}
